About 200 (0.44%) of roughly 45,000 compounds were called active. Not shown: some 7% with an inconclusive outcome. Calls come from the whole dose curve; as a rule, active = well fitted activation curve with a large enough effect; inconclusive = small, poorly fitted or top-dose-only effect; inactive = no such curve, though single readings can be large or run the other way. The list shows a part of the results.
Test: qHTS of TDP-43 Inhibitors: NCGC Sytravon Library Screen; note: 0% is about no effect; nearly all actives have a fitted effect of over 55% in size
Settings: yeast TDP-43 toxicity rescue, BacTiter-Glo growth, 24 h; series mostly up to 46.1 µM; growth rescue (activation): at the top concentration
Summary of the method: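 TDP-43-expressing yeast, pregrown in raffinose, seeded at OD600 0.02 in galactose medium with compound for 24 hr at 30 deg C. Growth read by BacTiter-Glo luminescence, so rescue of toxicity appears as activation.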

Compound	growth rescue (activation)	Potency
Cc1ccc(N(C(=O)c2snc(C(N)=O)c2N)C(C(=O)NCc2ccccc2)c2ccncc2)c(C)c1 (stereo not drawn)	inactive: 3.41%	–
CCn1nccc1NC(=O)c1ccc2sc([C@@H]3O[C@H](CO)[C@H](O)[C@H](O)[C@H]3O)nc2c1	inactive: -7.3%	–
CSCC[C@H](NC(=O)NCc1ccc(F)cc1)C(=O)O	inactive: 10.3%	–
Cc1ccc(-n2c(SCC(=O)Nc3ccc(C(=O)O)cc3)nnc2-c2ccncc2)cc1	inactive: 4.6%	–
CC12CCC(C(=O)NNc3ccc([N+](=O)[O-])cc3)(OC1=O)C2(C)C (stereo not drawn)	inactive: -13%	–
CC(C)N(CCc1ccncc1)C(=S)Nc1ccc(F)c(Cl)c1	inactive: 23%	–
CCNC(=O)C1(C)CCCN(Cc2csc3ccccc23)C1 (stereo not drawn)	inactive: 5.56%	–
N#CC(C#N)=c1ccc2c(c1)N1C(c3ccccc3)=CC(c3ccccc3)C3CCCCC31N=2 (stereo not drawn)	inactive: 2.82%	–
C/C(=N\S(=O)(=O)c1ccc(C)cc1)N1CCCCC1	inactive: -15%	–
CCOc1ccccc1N(C(=O)Nc1cccc(Cl)c1)C1=NC(C)CS1 (stereo not drawn)	inactive: 18.6%	–
C=CCOc1ccc(C=Nc2ccc(OC)cc2)c(O)c1	inactive: 0.805%	–
O=C(Cc1ccccc1[N+](=O)[O-])Nc1ccccc1C(=O)N1CCCC1	inactive: -0.571%	–
COc1cccc(CNC(=O)Cc2csc3ccccc23)c1OC	inactive: -1.93%	–
O=C(NNC(=O)c1ccncc1)Nc1ccccc1	inactive: 3.72%	–
CCOC(=O)c1cc(C#N)c(N2CCN(C)CC2)nc1-c1ccccc1	inactive: -4.48%	–
COCCN(CCOC)C(=S)Nc1ccccc1	inactive: -1.81%	–
O=C(CSc1nnnn1C1CCCCC1)N1CCN(C(=O)c2ccco2)CC1	inactive: -11.3%	–
CC1CCCCC12NC(=O)N(CC(=O)Nc1nccs1)C2=O (stereo not drawn)	inactive: 5.3%	–
NS(=O)(=O)c1cccc(NC(=O)CC2(CC(=O)O)CCCC2)c1	inactive: 12.8%	–
O=C(Cn1cc([N+](=O)[O-])ccc1=O)N1CCc2ccccc21	inactive: -35.6%	–
COCCSc1nnc(NC(=O)Cc2ccc(OC)cc2)s1	inactive: -1%	–
O=C(CCC1CCCN(C(=O)C2=CCCC2)C1)N1CCN(c2ccccn2)CC1 (stereo not drawn)	inactive: 12.9%	–

Compound	growth rescue (activation)	Potency
CCc1cccc(C)c1NC(=O)CCCSc1nc2ccccc2s1	inactive: -1.76%	–
COc1cccc(OC)c1NC(=O)CN(C)S(=O)(=O)c1ccc2c(c1)OCCO2	inactive: 19.7%	–
COc1ccc(S(=O)(=O)N2CC(C)N(S(=O)(=O)c3ccc(OC)cc3)CC2C)cc1 (stereo not drawn)	inactive: -7.24%	–
Cc1ccc(S(=O)(=O)N2CCCCCC2)cc1C(=O)NCc1ccccn1	inactive: 1.72%	–
COc1cccc(CNC(=O)CCNS(=O)(=O)c2cccc3nonc23)c1	inactive: 14.8%	–
CN(Cc1ccc(-n2cccn2)cc1)Cc1cn(C)nc1-c1ccccc1F	inactive: 15.3%	–
O=C(NCCCNC(=O)c1ccccn1)c1ccc(F)cc1	inactive: -7.26%	–
Cc1noc(C)c1CSc1ncnc2sc(C)c(C)c12	inactive: 18.7%	–
CN(C)c1cc2c(cc1NS(=O)(=O)c1ccccc1)n(C)c(=O)n2C	inactive: 4.62%	–
CN1/C(=C\C(=O)Nc2ccc(Cl)cc2)C(C)(C)c2ccccc21	inactive: 5.8%	–
O=S(=O)(NCc1cc(-c2ccccc2)no1)c1ccccc1Cl	inactive: 13.4%	–
OC(COc1ccc2c(c1)OCO2)CN1CCN(c2ccccc2)CC1 (stereo not drawn)	inactive: 2.21%	–
COc1ccc(C(=O)NC(=S)Nc2ccc(S(=O)(=O)Nc3cc(OC)nc(OC)n3)cc2)cc1	inactive: -0.373%	–
COc1ccc(-c2nn(-c3ccccc3)cc2CN2CCCO2)c(F)c1	inactive: 9.49%	–
Cc1ccc(C)c(OCC(=O)O/N=C(\N)c2cccnc2)c1	inactive: 35.1%	–
CCC(C)NC(=O)c1[nH]c(C)c(C(=O)OC)c1C (stereo not drawn)	inactive: 25.8%	–
COc1cc(NS(=O)(=O)c2ccc(NC(=O)Cc3ccccc3)cc2)nc(OC)n1	inactive: 6%	–
Fc1cccc(C2CCCCN2Cc2nc(C3CC3)no2)c1 (stereo not drawn)	inactive: 12.9%	–
O=C(Cn1ncn2cccc2c1=O)N1CCCCC1	inactive: 23.2%	–
CCOc1ccc(NC(=S)N2CCC(NC(=O)c3ccco3)CC2)cc1	inactive: 13%	–
O=C(Nc1ccc(N2CCN(C(=O)c3cccs3)CC2)cc1)c1ccccc1F	inactive: 7.67%	–
O=C(CNC(=O)c1ccc2c(c1)OCO2)NCc1cccs1	inactive: 2.92%	–

Compound	growth rescue (activation)	Potency
Cn1c(SCC2CCCO2)nnc1-c1ccc([N+](=O)[O-])cc1 (stereo not drawn)	inactive: 5.46%	–
Cc1ccc(C)c(NC(=O)c2c(Cl)nc3ccccn23)c1	inactive: 12.9%	–
COc1ccc(OCC(O)CN(C)C(=O)/C=C/c2cccc([N+](=O)[O-])c2)cc1 (stereo not drawn)	inactive: 5.97%	–
CCOc1ccccc1N1CCN(C(=O)c2csc(C)c2CC)CC1	inactive: 27.7%	–
Cc1noc(C)c1C(=O)N1CCC1(C)C(=O)NS(=O)(=O)c1ccc(F)cc1F (stereo not drawn)	inactive: 10.4%	–
O=C(CSc1nc(O)cc(=O)n1-c1ccccc1)Nc1ccc(Br)cn1	inactive: -2.36%	–
COc1ccc(CNC(=O)C2CCCN(S(=O)(=O)c3ccc(-n4cnnn4)cc3)C2)cc1 (stereo not drawn)	inactive: 8.33%	–
COc1cc(/C=N/NC(=O)C(N)=O)ccc1OC(=O)c1cccs1	inactive: -9.13%	–
Cc1cc(C)nc(NS(=O)(=O)c2ccc(NC(=O)c3ccc(S(=O)(=O)N4CC(C)OC(C)C4)cc3)cc2)n1 (stereo not drawn)	inactive: 4.53%	–
COc1cc2c(cc1OC)C(c1ccccc1C)CC(=O)N2 (stereo not drawn)	inactive: 3.53%	–
CS(=O)(=O)c1cccc(NC(=O)C2CCCN2S(=O)(=O)c2ccc(F)cc2)c1 (stereo not drawn)	inactive: 8.55%	–
CCOC(=O)C1(C)CCCN(C(=O)c2c(F)ccc(C)c2F)C1 (stereo not drawn)	inactive: 16.6%	–
C/C(=N\NC(=O)c1nnn(-c2nonc2N)c1C(C)C)c1ccncc1	inactive: -2.15%	–
COc1ccc(NC(=O)C/C(C)=N/NC(=O)C(=O)NC(C)C)c(OC)c1	inactive: -1.52%	–
O=C(Nc1cc(S(=O)(=O)N2CCCC2)ccc1Cl)c1cc(F)c(F)c(F)c1F	inactive: 1.11%	–
O=C(COC(=O)c1ccccn1)NCCc1ccc(Cl)cc1	inactive: 6.53%	–
CN(Cc1cn(C)nc1-c1cccc(Cl)c1)CC1CCCCO1 (stereo not drawn)	inactive: 7.97%	–
C=CCc1ccc(OCCOCCNCCCC)c(OC)c1	inactive: -37%	–
O=C1[C@@H]2Cc3c([nH]c4ccccc34)C(c3ccccc3)N2C(=O)CN1C1CC1 (stereo partly drawn)	inactive: -9.08%	–
CC1(CCc2ccccc2)NC(=S)N(c2ccccc2)N1 (stereo not drawn)	inactive: 12.1%	–
COCC1CCCCN1C(=O)c1ccc2oc(CCc3ccccc3)nc2c1 (stereo not drawn)	inactive: -9.74%	–
Cc1csc(SCC(=O)Nc2cc(C(N)=O)cc(C(N)=O)c2)n1	inactive: -4.94%	–

Compound	growth rescue (activation)	Potency
COc1ccccc1CNc1nc(Nc2ccc(C)cc2C)c2sccc2n1	inactive: -1.94%	–
COc1ccc(NC(=O)COC(=O)c2ccncc2)c(OC)c1	inactive: 2.84%	–
COc1ccc(-n2c(C)cc(/C=C3\SC(=S)N(Cc4ccco4)C3=O)c2C)cc1	inactive: 23.3%	–
CC(SCC(=O)Nc1ccccc1Br)c1nc2ccccc2c(=O)[nH]1 (stereo not drawn)	inactive: 3.11%	–
O=C(Nc1ccc(Br)cc1)c1cccc(-n2cnnn2)c1	inactive: 4.45%	–
Cc1cc(-c2ccc(C(C)C)c(S(=O)(=O)N3CCN(c4ccccc4)CC3)c2)on1	inactive: 1.97%	–
COCCNC(=O)Cn1cc(C(=S)N2CCOCC2)c2ccccc21	inactive: 6.11%	–
Cc1csc(=O)n1CCC(=O)OC(C)C(=O)NCc1ccccc1 (stereo not drawn)	inactive: -2.16%	–
CC1=C([N+](=O)[O-])C(c2ccc(Cl)cc2)NC(=O)N1C (stereo not drawn)	inactive: 0.946%	–
O=C(O)Cn1c(=O)c2c(c3ccccc31)CCC2	inactive: 7.8%	–
O=[N+]([O-])c1cccc(S(=O)(=O)c2ccc(NCCOCCO)c([N+](=O)[O-])c2)c1	inactive: 5.26%	–
COc1ccc(CCNC(=O)c2ccc3c(c2)OCO3)cc1	inactive: 12.1%	–
NC(=O)C1CCN(C(=O)c2ccc([N+](=O)[O-])cc2NC(=O)c2cccs2)CC1	inactive: -8.32%	–
Cc1noc(C)c1COC(=O)/C=C/c1ccc(Cl)cc1	inactive: 21.1%	–
O=C(NCc1ccc(F)cc1)C(c1ccccc1)N(C(=O)c1csnn1)C1CC1 (stereo not drawn)	inactive: 7.3%	–
COc1cccc(NC(=O)Nc2cc(C)ccc2OC)c1	inactive: 5.65%	–
CCc1nc2ccc(C(=O)NC3CCN(Cc4ccccc4)CC3)cn2c1N(C)Cc1cccs1	inactive: -4.8%	–
CCN(CC(=O)NC(C)C)C(=O)c1cc(S(=O)(=O)N2CCCCC2)ccc1N1CCCCC1	inactive: 5.21%	–
O=C(NCCOc1ccccc1F)C1CC(=O)N(Cc2ccccc2)C1 (stereo not drawn)	inactive: 13.9%	–
CCC(CC)NC(=O)/C=C/c1cccc([N+](=O)[O-])c1	inactive: -17.8%	–
O=c1c2[nH]c3ccc(F)cc3c2ncn1CC1CCCO1 (stereo not drawn)	inactive: 6.63%	–
CCC1CCCCN1S(=O)(=O)Cc1ccccc1Cl (stereo not drawn)	inactive: 42.6%	–

Compound	growth rescue (activation)	Potency
CC(CN1CCCCC1)OC(=O)CCc1ccccc1 (stereo not drawn)	inactive: 1.9%	–
O=C(CN1CCCN(Cc2ccc(F)cc2Cl)C1=O)NC1CCCC1	inactive: -15.3%	–
CC(C)N(Cc1ccccc1)C(=O)COC(=O)c1ccc(S(=O)(=O)N2CCOCC2)cc1	inactive: 14.2%	–
COc1cccc(NC(=O)Nc2cc(C(=O)O)ccc2C)c1	inactive: -5.78%	–
O=C(CC1NCCc2ccccc21)Nc1cccc(Cl)c1 (stereo not drawn)	inactive: -2.84%	–
O=c1c2nccnc2[nH]c(=S)n1Cc1ccccc1	inactive: 4.17%	–
CCn1c(C)[n+](CC)c2ccc(C(=O)N(C)c3ccccc3)cc21	inactive: 1.05%	–
CC(C)CNC(=O)c1ccccc1NC(=O)CN(c1ccccc1)S(=O)(=O)N(C)C	inactive: -1.1%	–
COc1cccc(NC(=O)N2CCN(c3ccc(C(F)(F)F)cn3)CC2)c1	inactive: -15.5%	–
CC1CN(C(=O)N2CCCCC2)CCN1C(=O)N1CCCCC1 (stereo not drawn)	inactive: 2.2%	–
Cc1ccc(O)c(NC(=O)C2CCCCC2)c1	inactive: -25%	–
Cc1ccc(CNC(=O)CN2C(=O)NC(C)(c3ccc(Cl)cc3)C2=O)cc1 (stereo not drawn)	inactive: 2.32%	–
CC(/C=N/NC(=O)c1cc(-c2ccc(C)s2)[nH]n1)=C\c1ccccc1	inactive: 10.5%	–
Cc1ccc(/C=C/C(=O)Nc2ccc([N+](=O)[O-])c(NC(=O)/C=C/c3ccc(C)o3)c2)o1	inactive: -10.7%	–
COc1ccccc1NC(=O)CCN1CCCCC1	inactive: 8.13%	–
CCC(C)/C(C)=N/NC(=O)CNS(=O)(=O)c1ccc([N+](=O)[O-])cc1 (stereo not drawn)	inactive: 10.4%	–
CC(=O)Nc1ccc(S(=O)(=O)NCCSCc2cccc(Cl)c2)cc1	inactive: 20.5%	–
COc1cccc(OCCSc2nc(C)c(Cc3ccccc3)c(=O)[nH]2)c1	–	inactive
N#C/C(=C\c1cccc(OC(=O)c2cccs2)c1)C(N)=O	inactive: 5.43%	–
O=C(O)CSc1nnc(-c2ccncc2)n1Cc1ccccc1	inactive: 2.64%	–

From PubChem BioAssay AID1347073 (National Center for Advancing Translational Sciences (NCATS), 2019)
